Measured values from article PMC9262583.
Results are given in words; binding and its absence hold for the method and conditions named. Binding seen in cells or lysates may run through a third protein. Some binding calls cover weakened binding; strength is not graded here. For some of these results: Tags and fused reporters may be left off the sequences shown.

Chains of the proteins cited; added tags and fusions are not shown.
UniProt Q9NFU0: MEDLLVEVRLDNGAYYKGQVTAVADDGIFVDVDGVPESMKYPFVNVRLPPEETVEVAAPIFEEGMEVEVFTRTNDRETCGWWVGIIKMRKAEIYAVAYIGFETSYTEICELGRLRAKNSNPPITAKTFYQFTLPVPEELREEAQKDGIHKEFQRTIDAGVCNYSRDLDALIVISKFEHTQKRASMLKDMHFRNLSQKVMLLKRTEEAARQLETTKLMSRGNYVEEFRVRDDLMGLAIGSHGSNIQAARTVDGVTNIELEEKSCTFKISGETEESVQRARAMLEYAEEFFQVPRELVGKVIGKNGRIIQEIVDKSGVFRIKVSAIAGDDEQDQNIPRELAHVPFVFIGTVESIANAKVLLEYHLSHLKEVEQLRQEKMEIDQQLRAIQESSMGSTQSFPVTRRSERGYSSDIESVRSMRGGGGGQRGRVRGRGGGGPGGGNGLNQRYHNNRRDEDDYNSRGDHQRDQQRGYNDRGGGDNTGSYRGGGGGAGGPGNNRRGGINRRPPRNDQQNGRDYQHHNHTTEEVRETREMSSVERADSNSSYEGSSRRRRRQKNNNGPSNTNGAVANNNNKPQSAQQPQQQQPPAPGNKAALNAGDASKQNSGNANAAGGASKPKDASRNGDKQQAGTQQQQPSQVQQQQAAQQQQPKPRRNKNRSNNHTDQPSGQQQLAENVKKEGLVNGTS

How the values were obtained:
[1] = molecular target: T1, Glorund (Glo), endogenous (Drosophila (endogenous in late-ovaries)) (UniProt Q9VGH5); assay: co-IP; anti-Glo antibody (5B7) crosslinked to Dynabeads Protein G; wild-type late-ovary lysate; IP buffer with 200 mM NaCl
T1 sequence: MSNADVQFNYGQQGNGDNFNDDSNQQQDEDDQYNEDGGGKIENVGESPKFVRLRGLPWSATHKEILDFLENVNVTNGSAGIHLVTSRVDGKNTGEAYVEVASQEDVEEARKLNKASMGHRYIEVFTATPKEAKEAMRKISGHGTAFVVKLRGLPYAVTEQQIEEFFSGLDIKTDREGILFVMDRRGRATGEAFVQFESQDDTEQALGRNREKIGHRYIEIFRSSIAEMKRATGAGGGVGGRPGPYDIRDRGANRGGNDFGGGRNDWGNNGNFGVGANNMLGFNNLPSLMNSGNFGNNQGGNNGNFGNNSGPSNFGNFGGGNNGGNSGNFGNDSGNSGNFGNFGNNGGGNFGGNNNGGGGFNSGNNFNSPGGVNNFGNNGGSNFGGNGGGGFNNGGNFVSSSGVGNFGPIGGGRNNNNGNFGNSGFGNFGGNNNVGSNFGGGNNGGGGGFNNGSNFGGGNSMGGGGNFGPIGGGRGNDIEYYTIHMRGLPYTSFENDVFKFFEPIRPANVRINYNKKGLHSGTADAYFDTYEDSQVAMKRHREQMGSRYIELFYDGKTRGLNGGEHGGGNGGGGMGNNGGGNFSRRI

[2] = molecular target: T2, GFP-GloΔCTX2 (Drosophila) (UniProt Q9VGH5); assay: co-IP; anti-GFP immunoprecipitation from late-ovary extract in the presence of RNase; immunoblot with anti-dFMRP, anti-Glo or anti-GFP
T2 sequence: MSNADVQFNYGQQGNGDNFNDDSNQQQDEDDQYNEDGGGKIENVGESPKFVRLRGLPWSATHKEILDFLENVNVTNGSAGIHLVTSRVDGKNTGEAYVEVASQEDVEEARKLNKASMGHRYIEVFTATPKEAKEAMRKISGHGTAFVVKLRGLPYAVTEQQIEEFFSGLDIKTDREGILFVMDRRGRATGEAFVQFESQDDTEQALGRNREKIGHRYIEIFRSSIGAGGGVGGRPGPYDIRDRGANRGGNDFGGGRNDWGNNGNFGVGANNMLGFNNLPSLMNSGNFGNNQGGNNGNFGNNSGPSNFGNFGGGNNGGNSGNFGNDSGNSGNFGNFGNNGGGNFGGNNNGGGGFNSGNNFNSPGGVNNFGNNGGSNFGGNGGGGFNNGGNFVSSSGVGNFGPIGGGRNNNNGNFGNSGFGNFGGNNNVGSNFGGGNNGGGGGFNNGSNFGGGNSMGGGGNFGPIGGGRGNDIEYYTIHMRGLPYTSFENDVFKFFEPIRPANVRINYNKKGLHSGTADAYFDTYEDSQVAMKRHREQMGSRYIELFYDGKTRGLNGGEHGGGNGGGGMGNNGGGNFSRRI

[3] = molecular target: T3, GFP-GloΔCTX1 (Drosophila) (UniProt Q9VGH5); assay: as above
T3 sequence: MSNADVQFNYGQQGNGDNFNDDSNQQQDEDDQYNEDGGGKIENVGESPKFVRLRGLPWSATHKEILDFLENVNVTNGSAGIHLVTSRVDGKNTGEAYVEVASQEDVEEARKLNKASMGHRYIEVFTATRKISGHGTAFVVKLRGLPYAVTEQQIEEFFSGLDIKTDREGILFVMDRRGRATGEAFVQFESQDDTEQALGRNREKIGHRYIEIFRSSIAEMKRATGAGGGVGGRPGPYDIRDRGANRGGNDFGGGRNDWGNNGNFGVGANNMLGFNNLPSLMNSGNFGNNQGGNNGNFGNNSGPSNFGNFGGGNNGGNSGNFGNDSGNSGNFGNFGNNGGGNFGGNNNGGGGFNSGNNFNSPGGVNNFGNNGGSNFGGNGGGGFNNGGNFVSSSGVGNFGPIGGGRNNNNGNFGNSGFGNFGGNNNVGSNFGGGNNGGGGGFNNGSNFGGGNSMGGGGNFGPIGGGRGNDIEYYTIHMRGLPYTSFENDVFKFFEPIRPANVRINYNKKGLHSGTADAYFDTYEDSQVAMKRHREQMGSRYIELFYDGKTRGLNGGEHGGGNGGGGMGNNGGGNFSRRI

[4] = molecular target: T4, GFP-GloΔCTX1 + 2 (Drosophila) (UniProt Q9VGH5); assay: as above
T4 sequence: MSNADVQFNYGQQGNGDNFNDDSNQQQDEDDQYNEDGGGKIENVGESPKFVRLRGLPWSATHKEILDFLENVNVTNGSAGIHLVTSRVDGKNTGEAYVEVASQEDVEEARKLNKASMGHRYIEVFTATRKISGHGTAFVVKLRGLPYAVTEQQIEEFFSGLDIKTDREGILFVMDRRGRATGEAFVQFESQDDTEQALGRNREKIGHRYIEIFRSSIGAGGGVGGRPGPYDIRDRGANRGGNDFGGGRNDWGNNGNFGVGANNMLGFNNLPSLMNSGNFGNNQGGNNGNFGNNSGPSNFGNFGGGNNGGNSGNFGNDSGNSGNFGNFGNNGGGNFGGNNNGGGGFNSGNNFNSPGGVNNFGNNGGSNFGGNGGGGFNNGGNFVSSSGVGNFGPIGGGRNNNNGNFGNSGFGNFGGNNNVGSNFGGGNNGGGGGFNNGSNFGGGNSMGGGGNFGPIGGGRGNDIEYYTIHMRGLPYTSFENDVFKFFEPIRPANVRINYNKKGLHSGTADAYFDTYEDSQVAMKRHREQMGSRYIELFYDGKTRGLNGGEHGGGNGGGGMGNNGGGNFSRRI

Measured: binding

Drosophila fragile X mental retardation protein (dFMRP), endogenous (from UniProt Q9NFU0 1-684)
binds: all assays above
